Test results reported in the supplement of paper PMC4723716.
± gives the uncertainty stated by the source. Over roughly 9,900 compounds, “viability index relative to DMSO control” has its median near 1; the lowest 2% begin near 0.85. The list shows a part of the results.

System: Plasmodium falciparum NF54 stage V gametocytes
Experiment: viability index relative to DMSO control (fraction); higher = less gametocyte killing
Conditions: 2.5 µM, library set: Broad Institute DOS, incubation time: 72 h
Summary of the method: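 P. falciparum NF54 stage V gametocytes in serum-free screening medium (0.75% gametocytemia, 1.25% hematocrit, 10 µl) were incubated with compound at 2.5 µM in 1,536-well plates for 72 hr at 37°C under low oxygen. Then 3 µl of 2.5 µM MitoTracker Red CMXRos plus 0.13% saponin was added for one to two hours. One field per well was imaged, 20–70 µm2 red particles were counted, and the viability index was the count divided by the plate mean of DMSO wells.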

SMILES	viability index
O=C(Nc1ccccc1F)N1CCCCN2[C@H](CO)[C@H](c3ccc(/C=C/c4ccccc4)cc3)[C@@H]2C1	1.01 ± 0.021
COc1ccccc1C#Cc1ccc([C@@H]2[C@@H](CO)N3CCCCN(C(=O)C4CCC4)C[C@@H]23)cc1	1 ± 0.076
O=C(c1cccnc1)N1CC2(C1)[C@H](c1ccccc1)[C@H](CO)N2C(=O)CC1CC1	1.016 ± 0.0087
COc1ccc2c3c([C@@H](CO)N(C[C@]33CN(Cc4ccncc4)C3)C(=O)CC3CC3)n(C)c2c1	1.09 ± 0.0047
O=C(N[C@H]1CC[C@H](CCNS(=O)(=O)c2ccc(F)cc2)O[C@H]1CO)C1CCC1	1.09 ± 0.051
C[C@H]1CN([C@@H](C)CO)C(=O)c2c(c3ccccc3n2C)-c2ccccc2CO[C@H]1CN(C)C(=O)[C@H](Cc1ccccc1)N(C)C	1.07 ± 0.059
O=C(CC(F)(F)F)N1C[C@H]2[C@@H](c3ccccc31)[C@H](CO)N2C(=O)c1ccncc1	0.981 ± 0.099
Cc1nc(N2[C@@H](C#N)[C@@H](c3ccccc3)[C@@H]2CO)sc1C	1.04 ± 0.11
C[C@@H]1CN([C@H](C)CO)C(=O)c2cccc(NC(=O)c3ccno3)c2O[C@H]1CN(C)S(=O)(=O)c1cccs1	0.948 ± 0.1
CCOC(=O)c1cc2c(c(-c3cccc(Br)c3)n1)[C@H](CCO)N(C(=O)NC(C)C)C2	1.07 ± 0.12
N#C[C@@H]1N[C@@H](CO)[C@H]1c1ccc(C#CC2CCCCC2)cc1	1.03 ± 0.031
C/C=C/c1ccc([C@H]2[C@H]3CN(S(=O)(=O)c4ccc(OC)cc4)CCCCN3[C@H]2CO)cc1	1.01 ± 0.044
C(=C\c1ccc([C@@H]2[C@H]3CNC[C@@H]2N3Cc2nccs2)cc1)/c1ccccc1	1.1 ± 0.02
COCC(=O)N1CC[C@@]2(CC1)CN([C@@H](CO)c1[nH]c3cc(OC)ccc3c21)S(C)(=O)=O	1.09 ± 0.06
CCCNC(=O)N1CC[C@@]2(CC1)CN(Cc1ccccn1)[C@@H](CO)c1c2c2ccc(OC)cc2n1C	1.02 ± 0.064
CO[C@H]1CC[C@H]2CCOc3c(C#N)cccc3C(=O)N(C)C[C@@H](OC)[C@@H](C)C(=O)N(C)C[C@H]1O2	1.04 ± 0.058
COc1ccc(-c2ccc([C@@H]3[C@@H](C#N)N(C(=O)NC(C)C)[C@H]3CO)cc2)cc1	1.09 ± 0.015
CO[C@H]1CN(C)C(=O)c2ccc(NC(=O)c3ccccc3F)cc2OC[C@@H](C)N(C)C[C@@H]1C	1.01 ± 0.063
O=C(C[C@@H]1CC[C@@H](NC(=O)c2cccnc2)[C@H](CO)O1)NCc1ccc(Cl)c(Cl)c1	0.961 ± 0.091
COc1ccc2c3c([nH]c2c1)[C@@H](CO)N(C[C@]31CN(CC2CCOCC2)C1)C(=O)Nc1c(C)noc1C	1.02 ± 0.034
CN(C)C(=O)c1ccc(-c2ccc([C@@H]3[C@H](C#N)N(C(=O)C4CC4)[C@H]3CO)cc2)cc1	1.11 ± 0.018
COc1ccc2c3c([nH]c2c1)[C@H](CO)N(Cc1ccc2OCOc2c1)C[C@]31CCN(CC1)C(=O)Nc1c(C)noc1C	1.09 ± 0.09
CC(=O)N1[C@H](CO)[C@@H](c2ccccc2)[C@H]1CNC(=O)CN1CCOCC1	0.975 ± 0.047
COc1ccccc1CNC(=O)C[C@@H]1CC[C@H]2[C@@H](COC[C@H](O)CN2Cc2ccc3c(c2)OCO3)O1	1.06 ± 0.092

SMILES	viability index
CC(C)(O)C#Cc1ccc([C@H]2[C@H](CO)N3CCCCN(S(C)(=O)=O)C[C@@H]23)cc1	1.01 ± 0.016
COc1cccc(-c2ccc([C@H]3[C@H]4CN(C(=O)c5cccnc5)CC(=O)N4[C@H]3CO)cc2)c1	1.04 ± 0.02
CN(C)C(=O)c1cccc(-c2ccc([C@H]3[C@H]4CN(CC5CCOCC5)CCCCN4[C@H]3CO)cc2)c1	1.02 ± 0.047
N#C[C@@H]1[C@@H](c2ccc(/C=C/c3ccccc3)cc2)[C@@H](CO)N1C(=O)C1CCCC1	1.025 ± 0.0016
O=C(C[C@H]1C=C[C@H](NC(=O)Nc2cccc(F)c2)[C@H](CO)O1)NCC1CCCCC1	0.95 ± 0.062
COc1ccc2c3c([nH]c2c1)[C@@H](CO)N(C[C@]31CCN(CC1)C(=O)Nc1ccc(F)cc1F)C(C)=O	1.07 ± 0.056
COc1cccc(C#Cc2ccc3c(c2)O[C@@H](CN(C)C(=O)CN2CCOCC2)[C@@H](C)CN([C@H](C)CO)S3(=O)=O)c1	0.966 ± 0.13
COc1ccc2c3c([C@H](CO)N(C[C@]33CCN(Cc4cccnc4)CC3)S(=O)(=O)c3ccc(C)cc3)n(C)c2c1	1.054 ± 0.0079
NCC[C@H]1CC[C@@H](NC(=O)NC2CCCCC2)[C@@H](CO)O1	0.988 ± 0.15
CO[C@@H](CN(C)S(=O)(=O)c1cccc(Cl)c1)[C@@H](C)CN(C(=O)Nc1ccccc1F)[C@@H](C)CO	0.987 ± 0.046
CN1C[C@H](O)COC[C@H]2O[C@@H](CC(=O)NC3CCCC3)CC[C@@H]21	1.12 ± 0.06
O=C(Nc1cc(F)ccc1F)N[C@@H]1CC[C@H](CCn2cc(C3CCCCC3)nn2)O[C@@H]1CO	0.914 ± 0.036
C[C@H]1C/C=C/C[C@H](c2cccc(Cl)c2)NC(=O)[C@@H](Cc2ccccc2)N(C)C(=O)c2ccccc2O1.C[C@H]1C/C=C\C[C@H](c2cccc(Cl)c2)NC(=O)[C@@H](Cc2ccccc2)N(C)C(=O)c2ccccc2O1	1.02 ± 0.066
COc1ccc2c3c([nH]c2c1)[C@@H](CO)NC[C@]31CN(Cc2cc(F)ccc2F)C1	1.03 ± 0.11
CCN1[C@H](C(=O)NC2Cc3ccccc3C2)[C@@H](CO)[C@@H]2Cn3c(ccc(C4=CCCC4)c3=O)[C@@H]21	0.993 ± 0.073
C[C@H]1CN([C@@H](C)CO)C(=O)Cc2cc(NC(=O)CCCCCC(=O)Nc3ccccc3N)ccc2O[C@@H]1CN(C)S(=O)(=O)c1cccs1	0.88 ± 0.16
Cc1noc(C)c1NC(=O)Nc1ccc2c(c1)C(=O)N(C)[C@H]1CC[C@H](CC(=O)N[C@H]3CCN(Cc4ccccc4)C3)O[C@@H]1CO2	1.07 ± 0.025
C[C@H]1CN([C@@H](C)CO)C(=O)c2c(c3ccccc3n2C)-c2ccccc2CO[C@H]1CN(C)S(=O)(=O)c1ccccc1C#N	1.04 ± 0.1
COc1ccc2c3c([nH]c2c1)[C@H](CO)N(C[C@]31CCN(Cc2nccs2)CC1)S(=O)(=O)c1ccc(C)cc1	1.03 ± 0.1
COc1ccccc1CNC(=O)C[C@H]1CC[C@@H]2[C@@H](COc3ccc(NC(C)=O)cc3C(=O)N2C)O1	0.957 ± 0.015
COc1ccccc1CN1[C@@H]2CNC[C@H]1[C@H]2c1ccc(/C=C/c2ccccc2)cc1	1.02 ± 0.016
CC(C)(C)[S@@](=O)N1Cc2cc(C(=O)NCC(F)(F)F)nc(-c3cccc(-c4cccc(F)c4)c3)c2[C@H]1CCO	1.01 ± 0.032
CO[C@H](CN(C)C(=O)c1ccccc1F)[C@@H](C)CN([C@@H](C)CO)S(=O)(=O)c1ccc(F)cc1	0.952 ± 0.063
COc1ccc2c3c([nH]c2c1)[C@H](CO)N(C)C[C@]31CN(C1)C(=O)C1CC1	0.863 ± 0.01

SMILES	viability index
O=C(N[C@H]1C=C[C@H](CC(=O)N2CCC(Cc3ccccc3)CC2)O[C@@H]1CO)c1cnccn1	1.09 ± 0.11
C/C=C/c1ccc2n(c1=O)C[C@@H]1[C@@H](CO)[C@H](C(=O)Nc3ccc(-c4ccccc4)cc3)[C@H]2N1C(=O)CC.C/C=C\c1ccc2n(c1=O)C[C@@H]1[C@@H](CO)[C@H](C(=O)Nc3ccc(-c4ccccc4)cc3)[C@H]2N1C(=O)CC	1.12 ± 0.12
COc1ccc2c3c([C@@H](CO)N(C[C@]33CCN(C)CC3)S(=O)(=O)c3ccc(C)cc3)n(C)c2c1	1.01 ± 0.031
COCC(=O)N1[C@@H](C#N)[C@@H](c2ccccc2-c2cccc(C)c2)[C@@H]1CO	1.07 ± 0.14
CC(C)NC(=O)N[C@@H]1CC[C@@H](CC(=O)NCCCN(C)C)O[C@@H]1CO	0.941 ± 0.056
CCCNC(=O)N1CC(=O)N2[C@H](CO)[C@H](c3ccc(C#Cc4cccc(OC)c4)cc3)[C@@H]2C1	1.02 ± 0.062
O=C(C1CCOCC1)N1CC2(C1)[C@H](c1ccccc1)[C@H](CO)N2Cc1ccccc1F	1.06 ± 0.063
C[C@@H]1CN([C@@H](C)CO)C(=O)c2cccc(NC(=O)c3nc4ccccc4s3)c2O[C@H]1CN(C)C(=O)Nc1ccc2c(c1)OCO2	0.878 ± 0.11
CN1C(=O)c2cc(NC(=O)c3ccc(F)c(F)c3)ccc2OC[C@H]2O[C@@H](CC(=O)N3CCCCC3)CC[C@H]21	1.1 ± 0.0047
COc1cccc(-c2ccc3c(c2)[C@H]2[C@H](CCN2S(=O)(=O)C2=NC(C)C=N2)[C@H](CO)N3C)c1 (stereo not given in full)	0.9928 ± 0.0067
O=C(C[C@H]1CC[C@H]2[C@@H](COC[C@@H](O)CN2Cc2cccc(Cl)c2)O1)NCc1cccc(F)c1	1.12 ± 0.059
O=C(CN1CCOCC1)N(CC1CCC1)C[C@H]1N[C@H](CO)[C@@H]1c1ccccc1	0.981 ± 0.064
COc1ccc(S(=O)(=O)Nc2ccc3c(c2)C(=O)N([C@@H](C)CO)C[C@@H](C)[C@H](CN(C)S(=O)(=O)c2ccc(Cl)cc2)OCCCC[C@@H](C)O3)cc1	1.062 ± 0.0066
C[C@H]1CN([C@@H](C)CO)C(=O)c2cccc(N(C)C)c2O[C@@H]1CN(C)Cc1ccncc1	1.03 ± 0.057
C/C=C/c1ccc([C@H]2[C@@H](CO)N(C(=O)C3CC3)[C@@H]2CNC(=O)NC(C)C)cc1	1.04 ± 0.06
C[C@@H]1CN([C@@H](C)CO)C(=O)CCCn2cc(nn2)CO[C@@H]1CN(C)Cc1ccccc1	0.972 ± 0.023
Cc1noc(C)c1NC(=O)N(C)C[C@H]1Oc2cc(C#CCN(C)C)ccc2S(=O)(=O)N([C@H](C)CO)C[C@@H]1C	1.049 ± 0.004
O=C(C[C@@H]1CC[C@@H]2[C@H](COC[C@@H](O)CN2C(=O)Nc2ccc(Cl)cc2)O1)NCC1CCCCC1	0.989 ± 0.062
C[C@@H]1CCCCO[C@H](CN(C)Cc2ccc(C(=O)O)cc2)[C@H](C)CN([C@H](C)CO)C(=O)c2cc(N(C)C)ccc2O1	1.09 ± 0.014
O=C(C1CCCCC1)N1[C@H](CO)[C@@H]2c3ccccc3NC[C@@H]21	1.06 ± 0.043
COc1ccccc1-c1ccc([C@H]2[C@@H](CO)N(C(=O)NC3CCCCC3)[C@H]2C#N)cc1	1.07 ± 0.018
CNC[C@H]1OCCCC[C@@H](C)Oc2ccc(N)cc2C(=O)N([C@@H](C)CO)C[C@@H]1C	1.15 ± 0.071
